Results published in PubChem BioAssay AID1508642 (National Center for Advancing Translational Sciences (NCATS), 2021).
Among all 43,000 compounds or so, about 200 (0.47%) were called active. Roughly 12% stayed inconclusive and do not appear here. Calls come from the whole dose curve; as a rule, active = well fitted cell-killing curve with a large enough effect; inconclusive = small, poorly fitted or top-dose-only effect, or effect the other way; inactive = flat fitted curve, though single readings scatter. Some of the results follow.

experiment: Cell viability qHTS assay in S16 Pmp22-F2sN cells; conditions: S16 Pmp22-F2sN Schwann cells (luciferase reporters placed in the Pmp22 gene) viability, CellTiter-Glo, 24 h; series mostly up to 57.5 µM; activity change, negative = cytotoxicity: at the top concentration; note: nearly all actives have a fitted effect of over 65% in size
Description: Assay Provider: Jim Inglese Ph.D. National Center for Advancing Translational Science, National Institutes of Health, Rockville, MD CMT is a heterogeneous group of neurological disorders that affect approximately 1 in 2,500 people. In particular, the most common form of CMT, CMT1A is genetically linked to the duplication of the PMP22 gene which leads to Schwann cell overexpression, thus manifesting itself as a typical case of dose-sensitive diseases. To identify small molecule compounds that can mediate the expression of PMP22 we developed a phenotypic assay screening strategy by utilizing genome editing techniques to construct Schwann cell lines containing novel reporter technology to monitor the transcriptional or translational regulation of PMP22. For high sensitivity we use a bioluminescent reporter system embedded in the 3' UTR of the PMP22 gene (S16(c9) Pmp22-F2sN) to identify compounds that inhibit gene expression. […] We can further discriminate the effect of all transcriptionally active molecules on PMP22 translation or stability with an assay that incorporates a short NLuc peptide (HiBiT) at the C-terminus of expressed PMP22 (S16(f8) PMP22-HiBiT) allowing alpha complementation and luminescence detection of membrane-associated PMP22 protein. These assays were screened against the NCATS Sytravon Library Collection. Miniaturization of these assays to 1536-well plate format for quantitative high throughput screening (qHTS) yielded rich data sets immediately from the qHTS assay (S16(c9) Pmp22-F2sN), when compared with data from a cell viability assay (Cell TiterGlo) to identify compounds that decreased the output signals through cellular toxicity to streamline the selection process of actives for subsequent characterization using the HiBiT assay (S16(f8) PMP22-HiBiT).
Cell viability assay in S16 Pmp22-F2sN cells PROTOCOL TABLE (format as described by Inglese J, Shamu CE and Guy RK. 2007) SEQUENCE No. (e.g., 1, 2, 3, etc.); […] (e.g., Cells, Incubation, Reagent, etc.); VALUE and DESCRIPTION. 1. Cells. Add 500-1,000 cells in 4 uL in growth media (DMEM High Glucose, No Phenol Red media + 10% heat-inactivated FBS + 1% Pen/Strep supplemented media) per well into Greiner 1536-well white/solid bottom high base, TC-treated plates. 2. Compounds. Library compounds and controls added at 23nL per well, transferred by Pin Tool. 3. Incubation. Incubate plates at 37C, 5% CO2, 95% RH for 24 h. 4. Reagent. Add 3uL CellTiter-Glo per well of Greiner 1536-well plates. 5. Incubation. Incubate plates at room temperature for 15 min., protect from light. 6. Detector. FLuc luminescence measured using CCD-based camera (Viewlux). NOTES (numbers refer to Sequence numbers above; values are from representative experiments) 6. Luminescence Read: Clear filter; Exposure = 1 sec, Gain = High, Speed = Slow, Binning = 2X REFERENCES: 1. Inglese J, Shamu CE and Guy RK, Reporting data from high throughput screening of small molecule libraries, Nature Chemical Biology, 2007, 3(8): 438-441. doi.org/10.1038/nchembio0807-438 2. Yasgar A, Shinn P, Jadhav A, Auld DS, Michael S, Zheng W, Austin CP, Inglese J and Simeonov A, Compound Management for Quantitative High-Throughput Screening. J. Assoc. Lab. Auto., 2008, 13: 79-89. doi: 10.1016/j.jala.2007.12.004
% is set by controls: 0 for no effect and ±100 for the full control effect.

Structure (SMILES) | activity change, negative = cytotoxicity
CCOc1ccc(-n2c(=O)c3c4c(sc3n(CC(=O)NCCCOC)c2=O)CCCCC4)cc1 | inactive: 0.967%
Cc1ccc2c(c1)-c1c(cnn1CC(=O)N1CCN(c3cccc(C(F)(F)F)c3)CC1)CO2 | inactive: 11.7%
COc1ccc(CNC(=O)CN2C(=O)COc3ccc(S(=O)(=O)N4CCCCCC4)cc32)cc1 | inactive: 17.9%
COc1ccc(-n2c(SCC(=O)NCc3ccccc3)nc3ccsc3c2=O)cc1 | inactive: -17.2%
COC(=O)c1sccc1S(=O)(=O)N(CC(=O)Nc1cc(C)cc(C)c1)c1ccc(Cl)cc1 | inactive: -5.59%
COCCOC(=O)Cn1nnc2sc(-c3ccccc3)cc2c1=O | inactive: 1.83%
CCOC(=O)c1ccc(NC(=O)CC2Nc3cc(C)c(C)cc3NC2=O)cc1 (stereo not drawn) | inactive: -25.9%
COc1ccc(CNC(=O)c2ccc(CNS(=O)(=O)c3ccc(OC)cc3)cc2)cc1 | inactive: 9.96%
COc1cccc(NC(=O)c2ccc3c(=O)n4nc(Nc5ccccc5OC)sc4nc3c2)c1 | inactive: 15.2%
COCCCNC(=O)c1ccc(Cn2c(=O)c3ccccc3n(Cc3ccc(C)cc3)c2=O)cc1 | inactive: 15.5%
Cc1ccc2cccc(NC(=O)c3ccc(-c4ccc(Cl)cc4Cl)o3)c2n1 | inactive: -1.22%
O=C(CCNS(=O)(=O)c1cccc2nsnc12)Nc1ccc(F)cc1 | inactive: -5.62%
COc1ccc(-c2nc3cc(NC(=O)COc4ccc(F)cc4)ccc3o2)cc1 | inactive: 13.2%
Cc1csc2nc(-c3cccc(NC(=O)c4ccc(S(N)(=O)=O)cc4)c3)cn12 | inactive: 29.2%
COc1ccc(S(=O)(=O)NCCc2sc(-c3ccccc3)nc2C)cc1OC | inactive: 1.71%
CCOC(=O)N1CCC(NC(=O)c2cnn(-c3ccccc3)c2C2CCN(C(=O)OC(C)(C)C)CC2)CC1 | inactive: 0.823%
O=C(NCCC1=CCCCC1)c1ccc2c(c1)ncn2-c1cccc(Cl)c1 | inactive: 3.86%
CCc1ccccc1NC(=O)CSc1ncc2c(n1)-c1ccccc1N(C)S2(=O)=O | inactive: -4.01%
CCOc1ccc(-c2cc(C)n3nc(C(=O)Nc4cc(Cl)ccc4O)cc3n2)cc1 | inactive: 0.89%
COc1cccc(NC(=O)Cn2c(=O)n(Cc3nc(-c4ccccc4)no3)c(=O)c3ccccc32)c1 | inactive: 1.39%
COc1ccccc1/C=C(\C#N)c1nc(-c2cc3ccccc3oc2=O)cs1 | inactive: 19.2%
COc1ccc(OC)c(CNC(=O)CCS(=O)(=O)c2ccc3c(c2)oc(=O)n3C)c1 | inactive: -1.25%
Cc1ccc(NC(=O)[C@H](CSCc2ccccc2)N2Cc3ccccc3C2=O)cc1 | inactive: 1.19%
CCN(C(=O)C(NS(=O)(=O)c1cccc2nsnc12)c1ccccc1)c1ccccc1 (stereo not drawn) | inactive: -9.8%

Structure (SMILES) | activity change, negative = cytotoxicity
COCCCNC(=O)CCCN1C(=O)CCn2nc(-c3cn(C)c4ccccc34)cc21 | inactive: 2.32%
COc1ccc(-c2ccnc3c2c(=O)n(C)c(=O)n3C)cc1OC | inactive: 2.94%
CC1CCN(S(=O)(=O)c2cccc(C(=O)NC3CCS(=O)(=O)C3)c2)CC1 (stereo not drawn) | inactive: 2.54%
Cc1cc(C)c(NC(=O)CN2C(=O)c3cccnc3Oc3ccc(Cl)cc32)c(C)c1 | inactive: 7.77%
Cc1ccc(C(=O)N2c3nc(-c4ccco4)nn3C3(CCCCC3)[C@@H]3CCCC[C@@H]32)cc1 | inactive: -9.23%
Cc1cc(Nc2ccc(C)c(Cl)c2)n2nc(-c3ccccc3)nc2n1 | inactive: 1.15%
COc1ccc(CNC(=O)CCS(=O)(=O)c2cc(Br)cc3c2N(C(=O)C2CC2)CC3)cc1 | inactive: -0.0449%
COC(=O)c1ccc(OCC2c3cc(OC)c(OC)cc3CCN2C(=O)c2cccc(C)c2)cc1 (stereo not drawn) | inactive: -11%
COc1cccc(N2CCN(C(=O)CN3CCSc4ccc(S(=O)(=O)N(C)C)cc43)CC2)c1 | inactive: -0.722%
COc1ccc(NC(=O)C2CCN(C3=NS(=O)(=O)C(c4ccc(C)c(C)c4)=C3C)CC2)cc1OC | inactive: -2.43%
O=C(Cn1nc(Cc2cccnc2)c2ccccc2c1=O)N1CCN(c2ccc(F)cc2)CC1 | inactive: 1.59%
CCCSCCCNC(=O)C1CCCN(C(=O)c2cnn(-c3ccccc3)c2-n2cccc2)C1 (stereo not drawn) | inactive: -0.592%
COc1ccc(Nc2ncnc3onc(C)c23)cc1Cl | inactive: 2.5%
COc1cccc(CNC(=O)Cn2c(=O)n3nc(-c4cccc(C)c4)nc3c3ccccc32)c1 | inactive: 4.76%
CCCCN(Cc1ccccc1)S(=O)(=O)c1ccc2c(c1)CCN2C(=O)C1CCC1 | inactive: 19.8%
Cc1ccc(CCNC(=O)c2ccc3c(c2)N(Cc2cc(C)ccc2C)C(=O)c2ccccc2S3=O)cc1 (stereo not drawn) | inactive: 1.87%
CCN(CC)c1ccc(NC(=O)CN2C(=O)c3cccnc3Oc3ccccc32)c(C)c1 | inactive: -10.4%
Cc1ccc(/C=C/c2onc(C)c2S(=O)(=O)N2CCC(C(=O)NCc3ccco3)CC2)cc1 | inactive: 21.8%
COc1ccc2c(c1)NC(c1ccc(F)cc1)=NC(c1ccc(F)cc1)=N2 | inactive: -4.77%
Cc1ccc(S(=O)(=O)NCCSc2nnnn2-c2ccccc2)cc1 | inactive: -4.31%
COc1ccc2c(c1)NC(c1ccc(Cl)cc1)=NC(c1cccs1)=N2 | inactive: 8.87%
CC1=C(C(=O)Nc2ccccc2)C(c2ccc(O)cc2)n2nc(-c3ccc(Cl)cc3)nc2N1 (stereo not drawn) | inactive: -11.9%
Cc1ccc(C)c(Cn2c(=O)n(Cc3ccccc3)c(=O)c3sc4ccccc4c32)c1 | inactive: 0.937%
CC(C)(C)c1ccc(-c2nnc(-c3ccccc3NC(=O)c3cccc(C(F)(F)F)c3)o2)cc1 | inactive: 8.68%

Structure (SMILES) | activity change, negative = cytotoxicity
COc1ccc(NC(=O)CSc2cn(CCNC(=O)c3ccc(OC)cc3)c3ccccc23)cc1 | inactive: 2.29%
COc1cccc(/C=C(\C#N)C(=O)Nc2ccc(NC(C)=O)cc2)c1OC | inactive: 5.75%
Cc1ccc(CN2C(=O)C3(c4ccccc42)N(c2ccc(C)c(Cl)c2)C(=O)CS3(=O)=O)cc1 (stereo not drawn) | inactive: 3.66%
COc1ccc(Br)cc1CNC(=O)CSc1n[nH]c(-c2ccccc2)n1 | inactive: -9.27%
CCC(C)[C@H](N)c1nnc(SCc2ccc(Cl)c(Cl)c2)o1 (stereo partly drawn) | inactive: 2.48%
COc1ccc(NC(=O)CCS(=O)(=O)c2ccc3c(c2)n(C)c(=O)c(=O)n3C)cc1Cl | inactive: 0.0136%
CCOc1ccccc1Nc1nc2c(S(=O)(=O)c3ccc(C)cc3)nnn2c2ccsc12 | inactive: -3.17%
CCc1ccc(NC(=O)CN2C(=O)CC(c3ccccc3)Sc3ccccc32)cc1 (stereo not drawn) | inactive: 17.9%
CC(C)(C)OC(=O)N1CCC(c2c(C(=O)NCCN3CCOCC3)cnn2-c2ccc(F)cc2F)CC1 | inactive: 3.52%
COc1ccc(-c2cccc(NS(=O)(=O)c3ccc(NC(C)=O)cc3)c2)nn1 | inactive: -24.9%
CCCCCNC(=O)C1CCC(Cn2c(=O)c3sccc3n(CC)c2=O)CC1 (stereo not drawn) | inactive: -21.4%
CCc1cccc(C)c1NC(=O)CN1C(=O)c2cccc3cccc1c23 | inactive: 10.9%
CCOc1cc(/C=C(\C#N)C(=O)Nc2ccc(OC)cc2)ccc1OCc1cc(=O)n2nc(CC)sc2n1 | inactive: 1.54%
Cc1ccc2nc(CSc3nnc(NC(=O)c4ccc(C(C)(C)C)cc4)s3)cc(=O)n2c1 | inactive: -7.8%
CC(=O)Nc1ccc(NC(=O)c2ncoc2-c2ccco2)cc1 | inactive: -1.11%
Cc1ccc(-c2nc3scc(CCNS(=O)(=O)c4ccc(Oc5ccccc5)cc4)n3n2)cc1 | inactive: -21.5%
CCc1ccccc1NC(=O)Nc1ccc2snnc2c1 | inactive: -27.3%
CCC(CC)C(=O)N1CCc2cc(OC)c(OC)cc2C1COc1ccc(F)cc1 (stereo not drawn) | inactive: 0.184%
O=C(CSCc1ccc(F)cc1)NCc1ccc(F)cc1 | inactive: -7.79%
Cc1cccc(CC(=O)N2CC(=O)Nc3ccc(F)cc3C2c2ccccc2)c1 (stereo not drawn) | inactive: -0.527%
Cc1ccc(CNC(=O)CSc2c(C(C)C)cnc3c2c(=O)n(C)c(=O)n3C)cc1 | inactive: 2.59%
COc1cc(NC(=O)CCCc2nnc3n(C)c(=O)c4sccc4n23)cc(OC)c1OC | inactive: 14.4%
O=C(CSc1nc(Nc2ccc(F)c(F)c2)c2ccccc2n1)c1ccc(Cl)cc1 | inactive: 15.4%
Cc1cccc(-n2ncc(C(=O)NCc3ccc4c(c3)OCO4)c2C2CCN(C(=O)OC(C)(C)C)CC2)c1 | inactive: -0.323%

Structure (SMILES) | activity change, negative = cytotoxicity
O=C(CSc1oc(-c2ccco2)nc1S(=O)(=O)c1ccc(Cl)cc1)Nc1ccc(F)cc1 | inactive: 1.19%
CCCCCCC1CCC(C(=O)NC(C(=O)O)C(C)C)CC1 (stereo not drawn) | inactive: 3.6%
COc1ccc(-c2nc3ccccc3n3c(-c4ccccc4)c4c(=O)n(C)c(=O)n(C)c4c23)cc1 | inactive: -0.566%
COc1ccc2c(Sc3ccc(Cl)cc3)c(C(=O)N3CCCCC3)[nH]c2c1 | inactive: -1%
Cc1ccc(N2C(=O)CSC23C(=O)N(CC(=O)Nc2ccccc2F)c2ccccc23)cc1C (stereo not drawn) | inactive: -18.9%
Cc1ccc(CNC(=O)c2ccc(CS(=O)(=O)c3ccccc3C)o2)cc1 | inactive: -0.956%
CCOC(=O)CSc1nc2cc3c(cc2c(=O)n1CCCCCC(=O)NCc1ccc(OC)cc1)OCO3 | inactive: 14.3%
CN(C)c1ccc(CNC(=O)c2ccc3nc(CCc4ccccc4)oc3c2)cc1 | inactive: 13.4%
CCOc1ccc(NC(=O)c2oc3ccccc3c2NC(=O)c2cc3ccccc3o2)cc1 | inactive: 9.78%
COc1ccccc1NC(=O)Cn1c(=O)n(-c2ccc(C)cc2)c(=O)c2c1cnn2C | inactive: 3.4%
Cc1ccc(/C=C/c2onc(C)c2S(=O)(=O)N2CCC(C(=O)N(CCC(C)C)Cc3ccco3)CC2)cc1 | inactive: -0.292%
COc1ccc(N2CCN(CCCNC(=O)c3ccc4nc(N5CCCCC5)sc4c3)CC2)cc1 | inactive: -0.682%
CCc1cccc(NC(=O)CCNS(=O)(=O)c2ccc3c(c2)CCN3C(C)=O)c1 | inactive: -16.4%
CC(C)(C)c1ccc(-c2nnc(-c3ccccc3NC(=O)c3ccc(F)cc3F)o2)cc1 | inactive: 0.949%
COc1ccc(-n2nc(C(=O)Nc3cccc(Cl)c3)c3c4ccccc4n(C)c3c2=O)cc1Cl | inactive: 9.23%
CCCSc1ncc(Cl)c(C(=O)N2CCN(c3ccc(OC)cc3)CC2)n1 | inactive: 15.1%
CN(C(=O)c1nn(C)c2c1CS(=O)(=O)c1ccccc1-2)c1cccc(Cl)c1 | inactive: 4.39%
Cc1ccc(N2C(=O)N(Cc3cccc(Cl)c3)c3ccccc3S2(=O)=O)cc1 | inactive: -19.5%
CCC1CN(C(=O)Nc2cc(Cl)ccc2C(=O)OC)c2ccccc2S1 (stereo not drawn) | inactive: 0.398%
COc1ccc(OC)c(NC(=O)COCc2cc(-c3ccc(F)cc3)on2)c1 | inactive: -3.75%
Cc1ccc(C)c(Cn2c(=O)n(CCCC(=O)NCc3ccc4c(c3)OCO4)c(=O)c3sccc32)c1 | inactive: -0.601%
